# Test results as given in the supplement of paper PMC6135742.
# Counter-ions that a name gives are not always drawn. ± gives the standard deviation of the averaged measurements. Whole data set: some 2,600 compounds, median “MBP+ mature oligodendrocyte number relative to DMSO vehicle control” near -0.34, cut for the highest 2% near 13. The list shows a part of the results.
# System: jimpy (Plp1 jimpy) mouse iPSC-derived oligodendrocyte progenitor cells
# Assay: MBP+ mature oligodendrocyte number relative to DMSO vehicle control (SDs above negative control mean); higher = more surviving jimpy oligodendrocytes (rescue)
# Conditions: 10 µM; 3 days
# 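Note: 10 µM single dose with 3-day oligodendrocyte differentiation.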
row,Compound,MBP+ mature oligodendrocyte number
1,O=C(O)Cc1cccc(OCCCN(Cc2cccc(C(F)(F)F)c2Cl)CC(c2ccccc2)c2ccccc2)c1,24.5
2,"O=c1cc(-c2ccccc2)[nH]c2nc(Cl)ccc12 [7-Chloro-4-hydroxy-2-phenyl-1,8-naphthyridine]",-0.119
3,O=c1[nH]c(=O)c2nc3ccccc3nc2[nH]1 [Alloxazine],-1.41
4,CC(=O)O[C@H]1C[C@@]2(C)[C@@H](C[C@@H](O)[C@H]3[C@@]4(C)CC[C@@H](O)[C@@H](C)[C@@H]4CC[C@@]32C)/C1=C(\CCC=C(C)C)C(=O)O [Fusidic acid sodium],1.08
5,O=c1[nH]c2cc(C(F)(F)F)ccc2n1-c1cc(C(F)(F)F)ccc1O,-1.11
6,COc1cc(C2Oc3cc([C@H]4Oc5cc(O)cc(O)c5C(=O)[C@@H]4O)ccc3OC2CO)ccc1O (stereo partly drawn) [Silymarin],-0.22
7,COc1cc(C2Oc3cc([C@H]4Oc5cc(O)cc(O)c5C(=O)[C@@H]4O)ccc3OC2CO)ccc1O (stereo partly drawn) [Silibinin],0.675
8,O=c1cc(-c2ccccc2)oc2cc(O)c(O)c(O)c12 [Baicalein],-2.74
9,N[C@@H](CCCC(=O)O)C(=O)O [L-2-aminoadipic acid],-0.119
10,CNC[C@H](O)[C@@H](O)[C@H](O)[C@H](O)CO [Meglumine],1.42
11,COC(=O)N[C@H](C(=O)N[C@@H](Cc1ccccc1)[C@@H](O)CN(Cc1ccc(-c2ccccn2)cc1)NC(=O)[C@@H](NC(=O)OC)C(C)(C)C)C(C)(C)C [Atazanavir Sulfate],-1.72
12,CCCCCCCCCC[Si](C)(C)CCC(=O)NC(Cc1ccc(C)cc1)c1ccccc1 (stereo not drawn) [Sandoz 58-035],1.88
13,COC(=O)Nc1ccc(-c2nc(N3CCOCC3)c3cnn(C4CCN(C(=O)OC)CC4)c3n2)cc1,-6.61
14,COCc1nc2c([nH]1)c(=O)n(C)c(=O)n2CC(C)C [8-Methoxymethyl-3-isobutyl-1-methylxanthine],-0.637
15,Cc1ccnc(NS(=O)(=O)c2ccc(N)cc2)n1 [Sulfamerazine],0.104
16,NC(=O)OCC(COC(N)=O)c1ccccc1 [Felbamate],1.43 ± 0.39
17,CCC[S+]([O-])c1ccc2[nH]c(NC(=O)OC)nc2c1 (stereo not drawn) [Albendazole Oxide],2.05
18,CCCCS(=N)(=O)CCC(N)C(=O)O (racemic) [L-Buthionine-sulfoximine],0.392
19,"CCCCS(=N)(=O)CCC(N)C(=O)O (racemic) [DL-Buthionine-[S,R]-sulfoximine]",-0.472
20,CC(C)n1c(/C=C/C(O)CC(O)CC(=O)O)c(-c2ccc(F)cc2)c2ccccc21 (stereo not drawn) [Fluvastatin Sodium],-4.97
21,O=c1ccn([C@@H]2O[C@H](CO)[C@@H](O)[C@H]2O)c(=O)[nH]1 [Uridine],-1.28
22,CC(C)(C)c1ccc(C(=O)CCCN2CCC(OC(c3ccccc3)c3ccccc3)CC2)cc1 [Ebastine],-5.41 ± 1.3
23,CCCCNc1cc(C(=O)O)cc(S(N)(=O)=O)c1Oc1ccccc1 [Bumetanide],0.63 ± 5.6
24,C[C@H](Cn1cnc2c(N)ncnc21)OCP(=O)(O)O [Tenofovir],1.16
25,Fc1ccc2[nH]c(CN3CCN(c4ccccn4)CC3)cc2c1,-1.89

row,Compound,MBP+ mature oligodendrocyte number
1,C[C@H]1O[C@@H](n2cc(F)c(=O)[nH]c2=O)[C@H](O)[C@@H]1O [5-fluoro-5'-deoxyuridine],-0.491
2,C[C@H]1O[C@@H](n2cc(F)c(=O)[nH]c2=O)[C@H](O)[C@@H]1O [Doxifluridine],-0.197
3,C[n+]1cccc(C(N)=O)c1 [1-Methylnicotinamide chloride],-0.176
4,CC(C)(C)c1nc(-c2cccc(NS(=O)(=O)c3c(F)cccc3F)c2F)c(-c2ccnc(N)n2)s1,1.45
5,Clc1ccc(C(c2ccc(Cl)cc2)[n+]2ccn(CC(OCc3ccc(Cl)cc3Cl)c3ccc(Cl)cc3Cl)c2)cc1 (stereo not drawn) [Calmidazolium chloride],< -3.34
6,O=c1c(-c2ccc(O)cc2)coc2cc(O)ccc12 [Daidzein],2.34 ± 0.28
7,CC(C)NC[C@H](O)COc1cccc2ccccc12 [(S)-Propranolol hydrochloride],-0.39
8,CC1(C)CC[C@]2(C(=O)O)CC[C@]3(C)C(=CC[C@@H]4[C@@]5(C)CC[C@H](O)C(C)(C)[C@@H]5CC[C@]43C)[C@@H]2C1 [Oleanolic Acid],-0.612
9,O=C(O)CCCCC(CCSCc1ccccc1)SCc1ccccc1 (stereo not drawn),2.25
10,CC(=O)CCCCn1c(=O)c2c(ncn2C)n(C)c1=O [Pentoxifylline],0.696
11,Nc1c(CC(=O)O)cccc1C(=O)c1ccc(Br)cc1 [Bromfenac Sodium],5.22
12,OCCN1CCN(CCCN2c3ccccc3C=Cc3ccccc32)CC1 [Opipramol dihydrochloride],-0.59
13,O=C(O)C=C1CCCc2ccccc2C1O (stereo not drawn),-0.167
14,COc1cccc(Nc2c(C(N)=O)cnc3c(C)cc(S(=O)(=O)c4cccc(C(=O)N(C)C)c4)cc23)c1,7.8
15,CN(C)CCOc1ccc(-c2nc(-c3ccncc3)c(-c3ccc4c(c3)CC/C4=N\O)[nH]2)cc1,< -4.81
16,CCCC(CCC)C(=O)O[C@H]1C[C@H]2CC[C@@H](C1)[N+]2(C)C [Anisotropine methyl bromide],32.5
17,C[C@H](Cc1cc2c(c(C(N)=O)c1)N(CCCO)CC2)NCCOc1ccccc1OCC(F)(F)F [Silodosin],< -5.15
18,C/C(=C\C(=O)Nc1ccccc1C(=O)O)c1ccc2ccccc2c1,-0.502
19,O=C(c1ccc(/C=C/c2n[nH]c3ccccc23)cc1)N1CCNCC1,-4.7
20,Cc1cc(Cl)ccc1OCCCC(=O)NO [Droxinostat],-1.14 ± 0.66
21,O=C(NCCN1CCOCC1)c1ccc(Cl)cc1 [Moclobemide],0.304
22,O=C(NCCN1CCOCC1)c1ccc(Cl)cc1,2.56
23,Cc1ccc(-n2sc(=O)n(Cc3ccc(F)cc3)c2=O)cc1,1.37
24,COc1c(C)c2c(c(O)c1C/C=C(\C)CCC(=O)O)C(=O)OC2 [Mycophenolic acid],< -4.81
25,O=C(Oc1ccccc1C(=O)O)c1ccccc1O [Sasapyrine],1.59

row,Compound,MBP+ mature oligodendrocyte number
1,CS(=O)(=O)c1ccc(-c2cnc(N)c(C(=O)Nc3ccccc3)n2)cc1,-3.62
2,NS(=O)(=O)c1cc(Cl)c(Cl)c(S(N)(=O)=O)c1 [Dichlorphenamide],-0.108
3,O=C(O)C1=CO[C@@H](O[C@@H]2O[C@H](CO)[C@@H](O)[C@H](O)[C@H]2O)[C@@H]2C(CO)=CC[C@H]12 [Geniposidic acid],0.171
4,Cc1cc(Cn2cnc3c2C[C@@H](C(=O)O)N(C(=O)C(c2ccccc2)c2ccccc2)C3)ccc1N,-2.99
5,CCCCCCC(=O)OC1CC(C)(C)NC(C)(C)C1 [TMPH hydrochloride],1.64
6,Oc1cc2c(cc1O)CN(C(=S)NCCc1ccc(Cl)cc1)CCC2 [Capsazepine],< -4.47
7,Nc1nc(Cl)nc2c1ncn2[C@@H]1O[C@H](COP(=O)(O)OP(=O)(O)OP(=O)(O)O)[C@H](O)C1O (stereo partly drawn) [2-Chloroadenosine triphosphate tetrasodium],-0.282
8,CN(C)Cc1cccc(N=C(c2ccccc2)c2c(O)[nH]c3cc(C(=O)N(C)C)ccc23)c1,-4.61
9,NC[C@@H](O)c1ccc(O)c(O)c1 [L(-)-Norepinephrine bitartrate],0.667
10,COc1ccc2c(c1)c(CC(=O)N1CCOCC1)c(C)n2C(=O)c1ccc(Cl)cc1,1.06
11,CNCCCC12CCC(c3ccccc31)c1ccccc12 [Maprotiline hydrochloride],< -3.97
12,CNCCCC12CCC(c3ccccc31)c1ccccc12 [Maprotiline HCl],< -4.81
13,CCc1c(O)cc(O)c(C(=O)c2ccc(OCCN3CCOCC3)c(OC)c2)c1CC(=O)N(CCOC)CCOC,< -6.01
14,CC[C@H]1OC(=O)C[C@@H](O)[C@H](C)[C@@H](O[C@@H]2O[C@H](C)[C@@H](O)[C@H](N(C)C)[C@H]2O)[C@@H](CCN2C[C@H](C)C[C@H](C)C2)C[C@@H](C)C(=O)/C=C/C(C)=C/[C@@H]1CO[C@@H]1O[C@H](C)[C@@H](O)[C@@H](OC)[C@H]1OC [Tilmicosin],-5.51
15,O=C1Cc2c([nH]c3ccc(Br)cc23)-c2ccccc2N1 [Kenpaullone],-1.42
16,Cc1coc2c1C(=O)C(=O)c1c-2ccc2c1CCCC2(C)C [Tanshinone IIA],0.451
17,C[C@]12C=CC(=O)C=C1CC[C@H]1[C@@H]3C[C@@H](O)[C@](O)(C(=O)CO)[C@@]3(C)C[C@H](O)[C@@]12F [Triamcinolone],-0.75 ± 2.8
18,CC1(C)O[C@@H]2C[C@H]3[C@@H]4CCC5=CC(=O)CC[C@]5(C)[C@@]4(F)[C@@H](O)C[C@]3(C)[C@]2(C(=O)CCl)O1 [Halcinonide],8.94
19,CCN(CC)C(=O)/C(C#N)=C/c1cc(O)c(O)c([N+](=O)[O-])c1 [Entacapone],3.04
20,C[C@@H]1O[C@@H](OC[C@H]2O[C@@H](Oc3c(-c4ccc(OCCO)c(OCCO)c4)oc4cc(OCCO)cc(O)c4c3=O)[C@H](O)[C@@H](O)[C@@H]2O)[C@H](O)[C@H](O)[C@H]1O [Troxerutin],0.787
21,CCCCCCCC/C=C\CCCCCCCC(=O)NCCO [N-Oleoylethanolamine],-0.715
22,C[C@@H](O)[C@H]1C(=O)N2C(C(=O)O)=C(S[C@@H]3CN[C@H](C(=O)N(C)C)C3)[C@H](C)[C@H]12 [Meropenem],1.94
23,CC(=O)O[C@H]1C[C@@H]2CC[C@@H]3[C@H](CC[C@@]4(C)[C@H]3C[C@H]([N+]3(C)CCCCC3)[C@@H]4OC(C)=O)[C@@]2(C)C[C@@H]1N1CCCCC1 [Vecuronium Bromide],2.47
